Reference: PubChem BioAssay AID602332 (National Center for Advancing Translational Sciences (NCATS), 2012)
In all, about 420,000 compounds went through this assay and about 75 (0.02%) were called active. The shares of active, inactive and inconclusive entries below differ from those in the screen. The call rests on the fitted dose curve; in most records, active means well fitted activation curve with a large enough effect; inconclusive means small, poorly fitted or top-dose-only effect; inactive means no such curve, though single readings can be large or run the other way. Where the call is inconclusive, the potency comes from a doubtful curve fit.

Assay: qHTS for Inducers of the Endoplasmic Reticulum Stress Response (ERSR) in Human Glioma: qHTS; further: nearly all actives have a fitted effect of over 35% in size; on activation: % of control where 0% means no effect
Settings: U87-MG GRP78 promoter luciferase reporter, 16 h; activation: stronger effect = higher value
Summary of the method: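 Stably transfected U87-MG glioma cells carrying a GRP78-based luciferase sensor; 16 h compound incubation. Luminescence end-point read 10 min after Bright-Glo addition at room temperature.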
Potency means the concentration at half of the fitted maximal effect; tags describe the fitted curve by direction and shape.

SMILES	activation	Potency
Nc1ccc(Cl)c(S(=O)(=O)Nc2ccc(Cl)cc2)c1	inactive: -6.73%	–
O=C1[C@@H](c2ccccc2)[C@@H](c2ccccc2)N1c1cccnc1	–	inconclusive: 50.1 µM [activator, single point]
CCOC(=O)CSc1nnc(SCCN2C(=O)c3ccccc3C2=O)s1	–	inconclusive: 44.7 µM [activator, partial curve, poor fit]
COc1ccccc1CNc1nc(-c2cccc(NS(C)(=O)=O)c2)nc2ccccc12	inactive: -6.21%	–
Brc1ccc(-c2nnc(-c3ccccc3)c(N3CCSCC3)n2)cc1	inactive: -2.76%	–
O=C(N/N=C/c1sc(=O)[nH]c1-[n+]1ccc2ccccc2c1)c1ccccc1[O-]	–	inconclusive: 25.1 µM [activator, partial curve, poor fit]
O=C(CCl)N1c2ccccc2Sc2c1ccc1ccccc21	–	inconclusive: 20 µM [activator, single point]
CCOc1ccc(S(=O)(=O)Nc2ccc3c(c2)c(C(C)=O)c(C)n3S(=O)(=O)c2ccc(OCC)cc2)cc1	–	inconclusive: 12.6 µM [activator, full curve, poor fit]
COCCNC(=O)/C(C#N)=C/c1cccc(/C=C(\C#N)C(=O)NCCOC)c1	–	inconclusive: 11.2 µM [activator, single point]
COC(=O)c1sc2nc(CSc3ccc(Br)cc3)[nH]c(=O)c2c1C	inactive: -4.33%	–
CC(=O)COc1coc(CN2CCN(c3ccc(F)cc3)CC2)cc1=O	inactive: -4.24%	–
Cc1cnc(Nc2nc3ccccc3o2)nc1C(=O)Nc1cccc(C(F)(F)F)c1	–	inconclusive: 35.5 µM [activator, partial curve, poor fit]
CCOC(=O)Cn1c(=O)oc2cc(S(=O)(=O)NCc3ccc(F)cc3)ccc21	–	inconclusive: 44.7 µM [activator, single point]
COc1ccccc1C1NC(c2ccc3c(c2)OCO3)=CC(c2cc(Br)ccc2O)N1 (stereo unspecified)	–	inconclusive: 44.7 µM [activator, single point]
Cn1c(NCc2cccc(Br)c2)nc2ccccc21	inactive: -0.648%	–
O=C(c1nc2ccc(Cl)cn2c1CN1CCC(CO)CC1)N1CCc2ccccc2C1	inactive: -1.83%	–
COc1cc(C(=O)NC(=S)NC(C)C)cc(OC)c1OC	inactive: 1.16%	–
Fc1ccccc1-c1nc(NCc2ccccc2)c2ccccc2n1	inactive: -2.91%	–
CCC(C(=O)Nc1ccc(C(C)C)cc1)n1nc(C)n2c(cc3cc(C)ccc32)c1=O (stereo unspecified)	–	inconclusive: 39.8 µM [activator, partial curve, poor fit]
COc1cc(/C=N/Nc2nc3ccccc3[nH]2)cc(OC)c1O	inactive: -0.77%	–
CC(C)(C)n1cnc2cc(NS(=O)(=O)c3ccc(Br)cc3)ccc21	–	inconclusive: 28.2 µM [activator, single point]
O=C(O)c1cccc(NS(=O)(=O)c2ccc(S(=O)(=O)N3CCOCC3)cc2)c1	inactive: -5.84%	–

SMILES	activation	Potency
Cc1cc(C(=O)CCl)c(C)n1-c1ccon1	–	inconclusive: 28.2 µM [activator, single point]
Cc1nc(-c2ccccc2)nc2[nH]c(=O)n(-c3ccccc3)c(=O)c12	–	inconclusive: 11.2 µM [activator, partial curve, poor fit]
Cn1ccc2cc(NC(=O)Nc3cccnc3)ccc21	inconclusive: 130% [activator]	–
O=c1cnc2ccccc2n1Cc1ccc(Br)cc1	–	inconclusive: 35.5 µM [activator, partial curve, poor fit]
O=C(c1ccc(Cl)cc1)c1oc2ccccc2c1CS(=O)c1ccc(Cl)cc1 (stereo unspecified)	inactive: -2.88%	–
NC1(N)OC(CN2C(=O)c3ccccc3C2=O)CS1 (stereo unspecified)	–	inconclusive: 44.7 µM [activator, partial curve, poor fit]
COCCCN1C(=O)C(=O)/C(=C(/O)c2ccc(S(=O)(=O)N3CCOCC3)cc2)C1c1cccc(Cl)c1 (stereo unspecified)	–	inconclusive: 50.1 µM [activator, single point]
O=C(NCc1ccco1)C1c2ccccc2Oc2ccccc21	inactive: -6.11%	–
COC(=O)COc1cccc(NC(=O)COc2ccccc2)c1	–	inconclusive: 50.1 µM [activator, single point]
CC(C)NS(=O)(=O)c1ccc(Oc2ncc(C(F)(F)F)cc2Cl)cc1	inactive: -4.29%	–
Cc1nc2cc(-c3cccc(F)c3)nn2c(N2CCN(C(=O)c3ccco3)CC2)c1C	–	inconclusive: 2.24 µM [activator, full curve, poor fit]
CCc1cccc(CC)c1NC(=O)/C(C#N)=C/c1ccccc1C(F)(F)F	–	inconclusive: 22.4 µM [activator, single point]
Cc1ccc(C=NNC(=O)c2cc(-c3cccnc3)nc3ccccc23)o1	inactive: -4.74%	–
O=S(=O)(N/N=C/c1ccc(Cl)cc1)c1ccc(Cc2ncc(C(F)(F)F)cc2Cl)s1	inactive: -5.88%	–
COc1cc(OC)cc(-c2nnc(NC(=O)c3ccc4c(c3)OCCO4)o2)c1	–	inconclusive: 28.2 µM [activator, single point]
COc1ccc(N(C(=O)c2ccco2)S(=O)(=O)c2cccs2)cc1	–	inconclusive: 50.1 µM [activator, single point]
O=C1CN(C(=O)COC(=O)CCS(=O)(=O)c2ccccc2Cl)c2ccccc2N1	–	inconclusive: 39.8 µM [activator, partial curve, poor fit]
CCn1c2ccccc2c2cc(NC(=O)C(=O)N3CCOCC3)ccc21	–	inconclusive: 12.6 µM [activator, single point]
COc1ccc(OC)c(S(=O)(=O)n2cnc3cc(C)c(C)cc32)c1	–	inconclusive: 28.2 µM [activator, single point]
Cc1nc(C)c(C(=O)N2CCCC(C(=O)c3ccc4ccccc4c3)C2)s1 (stereo unspecified)	inactive: 0.766%	–
Brc1ccccc1-c1nnc(COc2cccc3cccnc23)o1	–	inconclusive: 11.2 µM [activator, single point]
COc1ccc(CNC(=O)c2cc3cccc(O)c3oc2=N)cc1	–	inconclusive: 25.1 µM [activator, full curve, poor fit]

SMILES	activation	Potency
Cc1csc(NC(=O)CSc2ccc(-c3ccccn3)nn2)n1	inactive: -1.88%	–
Cc1cccc(C)c1NC(=O)COC(=O)c1ccc2c(c1)OCO2	inactive: 0.251%	–
CC(=O)Nc1ccc(C(=O)OCC(=O)NCc2ccccc2)cc1	–	inconclusive: 11.2 µM [activator, single point]
COc1ccc(N2CCN(C(=O)c3nc(SC)ncc3Cl)CC2)cc1	inactive: -0.609%	–
COc1cc(C(=O)Sc2ccc(Cl)cc2)cc(OC)c1OC	–	inconclusive: 28.2 µM [activator, single point]
CCSc1nc(N)nc(-c2cccs2)c1C#N	–	inconclusive: 11.2 µM [activator, full curve, poor fit]
O=C(Nc1ccc(C(=O)N2CCCCC2)cc1)c1ccc(Br)cc1	–	inconclusive: 31.6 µM [activator, partial curve, poor fit]
Cc1nn(-c2ccc(N3CCOCC3)nn2)c(C)c1CCC(=O)Nc1ccccc1	–	inconclusive: 25.1 µM [activator, single point]
Brc1ccc2nc(-c3ccco3)c(CC3CCCCC3)n2c1	–	inconclusive: 44.7 µM [activator, partial curve, poor fit]
CCCCn1cc(S(=O)(=O)c2ccc(OC)cc2)c(=O)c2cc(F)c(N3CCCC3)cc21	inactive: -2.38%	–
Cc1c(C(=O)NCc2cccc(Cl)c2)sc(=O)n1Cc1ccc(F)cc1	–	inconclusive: 50.1 µM [activator, single point]
O=C(C[N+]12CCCc3cccc(c31)CCC2)c1ccc2ccccc2c1	inactive: -1.71%	–
C[C@]12c3[nH]c4ccc(Cl)cc4c3CCN1C(=O)[C@@H](CC(=O)NCc1ccco1)C[C@@H]2C(=O)N1CCCCC1	inactive: -0.58%	–
N#C/C(=C/c1ccccc1)C(=O)NCc1ccccc1	–	inconclusive: 50.1 µM [activator, single point]
CC(=O)OCC1OC(Sc2cccc3cccnc23)C(OC(C)=O)C(OC(C)=O)C1OC(C)=O (stereo unspecified)	–	inconclusive: 50.1 µM [activator, single point]
Cc1ccc(OCC(=O)Nc2ccc3nc(SCc4ccccc4)sc3c2)cc1	–	inconclusive: 50.1 µM [activator, single point]
Cc1ccc(-c2cc(C(=O)NCc3ccccn3)c3ccccc3n2)cc1	–	inconclusive: 22.4 µM [activator, partial curve, poor fit]
Cc1ccc(C)c(OCC(=O)O/N=C(\N)c2ccccn2)c1	–	inconclusive: 3.98 µM [activator, partial curve, poor fit]
COc1ccc(NC(=O)N[C@@H](CCSC)C(=O)O)cc1Cl	inactive: -1.88%	–
O=C(CC1Nc2ccccc2NC1=O)Nc1ccccc1 (stereo unspecified)	–	inconclusive: 50.1 µM [activator, partial curve, poor fit]
O=C(CSc1ccccc1C(=O)O)NC12CC3CC(CC(C3)C1)C2	–	inconclusive: 8.91 µM [activator, partial curve, poor fit]
O=C(NC1=NCCS1)c1cc(-c2ccc(-c3ccccc3)cc2)nc2ccccc12	–	inconclusive: 44.7 µM [activator, partial curve, poor fit]
